Reference: PubChem BioAssay AID720709 (National Center for Advancing Translational Sciences (NCATS), 2013)
In all, about 360,000 compounds went through this assay and about 520 (0.14%) were called active. This list was built around the results that the source calls inconclusive (neither active nor inactive); the mix of calls is not that of the screen. Calls come from the whole dose curve; as a rule, active = well fitted inhibition curve with a large enough effect; inconclusive = small, poorly fitted or top-dose-only effect; inactive = no such curve, though single readings can be large or run the other way. Potencies of inconclusive entries are left out as doubtful fits.

Target: Rap guanine nucleotide exchange factor 3 (Homo sapiens) (UniProt O95398)
Assay: qHTS for Antagonist of cAMP-regulated guanine nucleotide exchange factor 3 (EPAC1): primary screen; note: nearly all actives have a fitted effect of over 50% in size;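 for activity change, negative = inhibition: plate controls were vehicle for no effect and positive control for full effect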
Conditions: EPAC1 GEF assay, Rap1b-BODIPY-GDP exchange fluorescence; activity change, negative = inhibition: at 115 µM (top of the series)
Potency is the fitted concentration of half-maximal effect; tags give direction and shape of the fitted curve.

Sequence of UniProt O95398 (O95398 whole entry, looked up): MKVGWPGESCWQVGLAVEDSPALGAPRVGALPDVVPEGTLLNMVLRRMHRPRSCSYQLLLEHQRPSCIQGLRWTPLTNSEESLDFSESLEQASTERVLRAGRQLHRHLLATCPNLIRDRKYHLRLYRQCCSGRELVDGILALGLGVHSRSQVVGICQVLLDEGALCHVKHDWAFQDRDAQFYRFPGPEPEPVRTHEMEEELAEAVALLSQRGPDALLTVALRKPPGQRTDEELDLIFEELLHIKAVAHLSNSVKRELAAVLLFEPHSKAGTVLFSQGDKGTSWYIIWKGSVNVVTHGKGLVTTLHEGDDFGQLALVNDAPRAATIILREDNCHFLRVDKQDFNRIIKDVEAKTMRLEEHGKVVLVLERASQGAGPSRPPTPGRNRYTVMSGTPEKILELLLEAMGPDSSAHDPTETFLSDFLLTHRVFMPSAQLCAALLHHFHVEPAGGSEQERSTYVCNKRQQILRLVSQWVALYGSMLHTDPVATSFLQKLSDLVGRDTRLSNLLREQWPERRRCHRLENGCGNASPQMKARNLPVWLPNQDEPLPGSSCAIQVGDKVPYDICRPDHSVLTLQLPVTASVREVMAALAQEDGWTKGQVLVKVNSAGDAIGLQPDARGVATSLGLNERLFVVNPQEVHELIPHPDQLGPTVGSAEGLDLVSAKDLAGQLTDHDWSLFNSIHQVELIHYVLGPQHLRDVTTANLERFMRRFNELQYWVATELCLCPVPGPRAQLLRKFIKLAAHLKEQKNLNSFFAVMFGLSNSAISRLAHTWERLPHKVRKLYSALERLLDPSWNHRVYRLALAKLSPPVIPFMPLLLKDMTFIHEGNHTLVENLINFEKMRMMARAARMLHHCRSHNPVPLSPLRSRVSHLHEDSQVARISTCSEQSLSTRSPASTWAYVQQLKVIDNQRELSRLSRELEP

SMILES	activity change, negative = inhibition	Potency
COc1cc(CCc2ccccc2)c(C(=O)O)c(O)c1CC=C(C)C	inconclusive: -32.4% [inhibitor]	
COc1ccc(S(=O)(=O)N2CCC(C(=O)NCCc3ccccc3)CC2)cc1		inactive
O=C(Nc1ccc2nc3n(c(=O)c2c1)CCCCC3)c1c(F)ccc([N+](=O)[O-])c1F		inconclusive [inhibitor, partial curve, poor fit]
O=C(O)c1ccc2c(=O)n(-c3ccccc3F)c(=S)[nH]c2c1		inconclusive [inhibitor, single point]
COc1ccc2c(c1)c(CC(=O)OC(C)C(=O)N(C)C)c(C)n2C(=O)c1ccc(Cl)cc1 (configuration not stated)		inconclusive [inhibitor, single point]
O=C(O)c1ccc(NC2=C(N3CCOCC3)C(=O)c3ccccc3C2=O)cc1		inactive
CN1c2ccccc2C(C)(C)C12C=Nc1c(cc(N3CCOCC3)c3ccccc13)O2 (configuration not stated)		active: 89.1 µM
CC(=O)C1=C(C)NC2(O)c3ccccc3C(=O)C12O (configuration not stated)		inactive
COC(=O)CCCC1=CC2=CC(=O)C(C)(OC(=O)c3cccs3)C(=O)C2=CN1CCc1ccccn1 (configuration not stated)		inactive
CC(C)N(C(=S)Nc1cccc(C(F)(F)F)c1)C(C)c1ccccn1 (configuration not stated)		inconclusive [inhibitor, partial curve, poor fit]
O=C(O)C1=CC[C@@H](c2ccc(Cl)cc2)N(S(=O)(=O)c2ccc(Cl)cc2)[C@H]1c1cccc(Cl)c1		inconclusive [inhibitor, single point]
Cc1cc(NC(=O)COC(=O)C(C)Oc2ccc(Cl)cc2Cl)no1 (configuration not stated)		inconclusive [inhibitor, full curve]
CSc1cccc(NC(=O)CSc2ccc(Cl)cc2)c1		inconclusive [inhibitor, single point]
CCOC(=O)c1ccccc1NC(=O)C1CC(=O)N(C2CCCC2)C1 (configuration not stated)		inconclusive [inhibitor, single point]
Cn1cc(Br)c(C(=O)Nc2sc3c(c2C(N)=O)CCCC3)n1		inconclusive [inhibitor, partial curve, poor fit]
CSc1cccc(NC(=S)N(CCCN2CCCC(C)C2)Cc2cccs2)c1 (configuration not stated)		inactive
CCOC(=O)C1=C(C)NC(C)=C(C(=O)OCC)C1C(=O)OCC(=O)NC(C)c1ccccc1 (configuration not stated)		inactive
Cn1cnnc1Sc1cc(N2CCN(S(=O)(=O)c3ccc(Cl)c(Cl)c3)CC2)ccc1[N+](=O)[O-]		inactive
Cc1c2c(=O)n(-c3nc4ccccc4s3)nc-2cc(O)n1Cc1ccccc1		inconclusive [inhibitor, full curve]
CSc1ccccc1C(=O)Nc1ccc(C)cc1C		inactive
Cc1[nH]c(=O)nc(SCc2cccc(Cl)c2)c1C#N		inconclusive [inhibitor, partial curve, poor fit]

SMILES	activity change, negative = inhibition	Potency
CCCOc1ccc(-c2cnc(SCC(N)=O)nc2N)cc1		inconclusive [inhibitor, partial curve, poor fit]
CC(C)(CS(=O)(=O)[O-])NC(=O)CC[N+](C)(C)CCO		inconclusive [inhibitor, single point]
CCCNC1=C(N(C(C)=O)c2cccc(F)c2)C(=O)c2ccccc2C1=O		inactive
CCC(c1nnnn1Cc1ccco1)N1CCN(c2cc(Cl)ccc2C)CC1 (configuration not stated)		inconclusive [inhibitor, single point]
C=CCc1c(C)nc(-c2ccccc2)nc1N/N=C(\C)c1ccc(N)cc1		inconclusive [inhibitor, partial curve]
COc1cc(/C=C2\SC(=Nc3ccccc3)N(Cc3ccco3)C2=O)ccc1OC(C)C(=O)O (configuration not stated)		inconclusive [inhibitor, single point]
O=C(COC(=O)/C=C/c1cccc(Br)c1)NC1CC1		inconclusive [inhibitor, partial curve]
CCc1nn2c(NCCCO)cc(C)nc2c1-c1ccc(F)cc1		inconclusive [inhibitor, partial curve]
CCOC(=O)C1=C(C)N=c2sc(=Cc3cc(Cl)c(OCC(=O)O)c(Cl)c3)c(=O)n2C1c1cccc(OC)c1 (configuration not stated)		inconclusive [inhibitor, partial curve]
C[C@@H](CO)NC(=O)c1ccc2c3n(nc2c1)-c1ccccc1CO3		inactive
Cc1noc(C)c1C(=O)OCC(=O)c1cc(C)n(Cc2ccccc2Cl)c1C		inconclusive [inhibitor, partial curve, poor fit]
O=C(COC(=O)C1CCN(c2ccc(C(F)(F)F)cn2)CC1)NCc1ccccc1		inconclusive [inhibitor, single point]
CCCCCCCCCCOC(=O)Cn1c(COc2ccccc2C)[n+](C)c2ccccc21		inconclusive [inhibitor, single point]
COc1ccc(C2C=C(c3ccccc3)Nc3nnnn32)cc1 (configuration not stated)		inconclusive [inhibitor, single point]
COc1cc(C2=NOC(C(=O)Nc3ccc4c(c3)OCO4)C2)cc(OC)c1OC (configuration not stated)		inactive
Cc1cc(CSc2ccc(Cl)cc2)ccc1N		inactive
Cc1noc(C)c1COc1ccccc1C(=O)N(C)Cc1ccc(C(C)(C)C)cc1		inconclusive [inhibitor, partial curve]
Cc1ccccc1C(=O)NC1CC(C)(C)NC(C)(C)C1		inconclusive [inhibitor, single point]
C/C=C\C=C/C(=O)Nc1cccc(C2=NOC3(C2)C[C@H](C(N)=O)N(C(=O)c2ccc(OC)cc2)C3)c1 (some centres not stated)		inconclusive [inhibitor, partial curve]
CC(C)C(NS(=O)(=O)c1c(Cl)cccc1Cl)C(=O)OCC(=O)c1c[nH]c2ccccc12 (configuration not stated)		inconclusive [inhibitor, full curve]
CCC(C(=O)O)N1C(=O)/C(=C/C(C)=C/c2ccccc2)SC1=S (configuration not stated)		inconclusive [inhibitor, single point]
